Paper PMC9911399, “Two distinct binding modes provide the RNA-binding protein RbFox with extraordinary sequence specificity”
Where a chain is given by its changes, count along the chain named. This is one part of the list.

T1: RBFOX1 RRM (Homo sapiens, UniProt Q9NWB1 109-208)
T1 sequence: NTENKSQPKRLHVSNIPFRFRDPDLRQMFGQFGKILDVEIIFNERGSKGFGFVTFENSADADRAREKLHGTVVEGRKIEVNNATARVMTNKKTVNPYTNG

B1: UCACUGU (DNA:RNA)
RNA: GGGAGACCGGAAUUCAGAUUGUCCUCACUGUUUAAAUCCCGUCGUAGCCACCA
DNA 1: CAATCTGAATTCCGGTCTCCC
DNA 2: TGGTGGCTACGACGGGATT
B2: AUCACCU (DNA:RNA)
RNA: B1 RNA with U25A, C26U, A27C, C28A, U29C, G30C
DNA 1: CAATCTGAATTCCGGTCTCCC
DNA 2: TGGTGGCTACGACGGGATT
B3: UAAAUUA (DNA:RNA)
RNA: B1 RNA with C26A, C28A, G30U, U31A
DNA 1: CAATCTGAATTCCGGTCTCCC
DNA 2: TGGTGGCTACGACGGGATT
B4: UAAGACC (DNA:RNA)
RNA: B1 RNA with C26A, C28G, U29A, G30C, U31C
DNA 1: CAATCTGAATTCCGGTCTCCC
DNA 2: TGGTGGCTACGACGGGATT
B5: UGGAAUA (DNA:RNA)
RNA: B1 RNA with C26G, A27G, C28A, U29A, G30U, U31A
DNA 1: CAATCTGAATTCCGGTCTCCC
DNA 2: TGGTGGCTACGACGGGATT
B6: AACUCGA (DNA:RNA)
RNA: B1 RNA with U25A, C26A, A27C, C28U, U29C, U31A
DNA 1: CAATCTGAATTCCGGTCTCCC
DNA 2: TGGTGGCTACGACGGGATT
B7: AUGCCAC (DNA:RNA)
RNA: B1 RNA with U25A, C26U, A27G, U29C, G30A, U31C
DNA 1: CAATCTGAATTCCGGTCTCCC
DNA 2: TGGTGGCTACGACGGGATT
B8: AGUUUUG (DNA:RNA)
RNA: B1 RNA with U25A, C26G, A27U, C28U, G30U, U31G
DNA 1: CAATCTGAATTCCGGTCTCCC
DNA 2: TGGTGGCTACGACGGGATT
B9: GCCCGUC (DNA:RNA)
RNA: B1 RNA with U25G, A27C, U29G, G30U, U31C
DNA 1: CAATCTGAATTCCGGTCTCCC
DNA 2: TGGTGGCTACGACGGGATT
B10: AUAUCGC (DNA:RNA)
RNA: B1 RNA with U25A, C26U, C28U, U29C, U31C
DNA 1: CAATCTGAATTCCGGTCTCCC
DNA 2: TGGTGGCTACGACGGGATT
B11: CCGCGUG (DNA:RNA)
RNA: B1 RNA with U25C, A27G, U29G, G30U, U31G
DNA 1: CAATCTGAATTCCGGTCTCCC
DNA 2: TGGTGGCTACGACGGGATT
B12: AUGGUCA (DNA:RNA)
RNA: B1 RNA with U25A, C26U, A27G, C28G, G30C, U31A
DNA 1: CAATCTGAATTCCGGTCTCCC
DNA 2: TGGTGGCTACGACGGGATT
B13: GAGAAAC (DNA:RNA)
RNA: GGGAGACCGGAAUUCAGAUUGUCCGAGAAACUUAAAUCCCGUCGUAGCCACCA
DNA 1: CAATCTGAATTCCGGTCTCCC
DNA 2: TGGTGGCTACGACGGGATT
B14: UCCGGCA (DNA:RNA)
RNA: B1 RNA with A27C, C28G, U29G, G30C, U31A
DNA 1: CAATCTGAATTCCGGTCTCCC
DNA 2: TGGTGGCTACGACGGGATT
B15: AUGUUUU (DNA:RNA)
RNA: B1 RNA with U25A, C26U, A27G, C28U, G30U
DNA 1: CAATCTGAATTCCGGTCTCCC
DNA 2: TGGTGGCTACGACGGGATT
B16: GCCAGCU (DNA:RNA)
RNA: B13 RNA with A26C, G27C, A29G, A30C, C31U
DNA 1: CAATCTGAATTCCGGTCTCCC
DNA 2: TGGTGGCTACGACGGGATT
B17: CAUGCUG (DNA:RNA)
RNA: B13 RNA with G25C, G27U, A28G, A29C, A30U, C31G
DNA 1: CAATCTGAATTCCGGTCTCCC
DNA 2: TGGTGGCTACGACGGGATT
B18: CGCUCAG (DNA:RNA)
RNA: B13 RNA with G25C, A26G, G27C, A28U, A29C, C31G
DNA 1: CAATCTGAATTCCGGTCTCCC
DNA 2: TGGTGGCTACGACGGGATT
B19: CUCCGGA (DNA:RNA)
RNA: B1 RNA with U25C, C26U, A27C, U29G, U31A
DNA 1: CAATCTGAATTCCGGTCTCCC
DNA 2: TGGTGGCTACGACGGGATT
B20: UGGGUCG (DNA:RNA)
RNA: B1 RNA with C26G, A27G, C28G, G30C, U31G
DNA 1: CAATCTGAATTCCGGTCTCCC
DNA 2: TGGTGGCTACGACGGGATT
B21: UAAGCUA (DNA:RNA)
RNA: B1 RNA with C26A, C28G, U29C, G30U, U31A
DNA 1: CAATCTGAATTCCGGTCTCCC
DNA 2: TGGTGGCTACGACGGGATT
B22: AUCCCUC (DNA:RNA)
RNA: B13 RNA with G25A, A26U, G27C, A28C, A29C, A30U
DNA 1: CAATCTGAATTCCGGTCTCCC
DNA 2: TGGTGGCTACGACGGGATT
B23: CGCCCCC (DNA:RNA)
RNA: B13 RNA with G25C, A26G, G27C, A28C, A29C, A30C
DNA 1: CAATCTGAATTCCGGTCTCCC
DNA 2: TGGTGGCTACGACGGGATT
B24: GGGCUCG (DNA:RNA)
RNA: B13 RNA with A26G, A28C, A29U, A30C, C31G
DNA 1: CAATCTGAATTCCGGTCTCCC
DNA 2: TGGTGGCTACGACGGGATT
B25: AAUAUUU (DNA:RNA)
RNA: B13 RNA with G25A, G27U, A29U, A30U, C31U
DNA 1: CAATCTGAATTCCGGTCTCCC
DNA 2: TGGTGGCTACGACGGGATT
B26: CGUACUA (DNA:RNA)
RNA: B13 RNA with G25C, A26G, G27U, A29C, A30U, C31A
DNA 1: CAATCTGAATTCCGGTCTCCC
DNA 2: TGGTGGCTACGACGGGATT
B27: GUUACGC (DNA:RNA)
RNA: B13 RNA with A26U, G27U, A29C, A30G
DNA 1: CAATCTGAATTCCGGTCTCCC
DNA 2: TGGTGGCTACGACGGGATT
B28: GUAGACA (DNA:RNA)
RNA: B13 RNA with A26U, G27A, A28G, A30C, C31A
DNA 1: CAATCTGAATTCCGGTCTCCC
DNA 2: TGGTGGCTACGACGGGATT
B29: UUGCUUA (DNA:RNA)
RNA: B1 RNA with C26U, A27G, G30U, U31A
DNA 1: CAATCTGAATTCCGGTCTCCC
DNA 2: TGGTGGCTACGACGGGATT
B30: UUCGUAC (DNA:RNA)
RNA: B13 RNA with G25U, A26U, G27C, A28G, A29U
DNA 1: CAATCTGAATTCCGGTCTCCC
DNA 2: TGGTGGCTACGACGGGATT
B31: GACCCAG (DNA:RNA)
RNA: B13 RNA with G27C, A28C, A29C, C31G
DNA 1: CAATCTGAATTCCGGTCTCCC
DNA 2: TGGTGGCTACGACGGGATT

Each binder was assayed against T1, RBFOX1 RRM (assay: EMSA; HiTS-Eq, 1 nM pool, 10 min; buffer printed only for the single-RNA assays: 10 mM Tris pH 7.5, 150 mM NaCl, 3.4 mM EDTA, 0.001% NP-40, 30 C). Settings: tags: His6 N-terminal (pET28a); label: 5' 32P.
How it was run: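 Purified wild-type or mutant RbFox RRM at increasing concentrations was equilibrated with 1 nM of 5′-radiolabelled RNA carrying 7 randomized nucleotides for 10 min in 50 µL. Unbound RNA was separated by 8% native PAGE and sequenced. Relative association constants came from read-count changes of each RNA species compared with the control reaction, normalised to the cognate motif.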

**Q.** How did the binding signal turn out when B1 was run?
**A.** The binding signal was 0.00833 KA relative to UGCAUGU.

**Q.** For B2, which binding signal is on record?
**A.** The binding signal was 0.00026 KA relative to UGCAUGU.

**Q.** How did the binding signal turn out when B3 was run?
**A.** Its binding signal is 0.00608 KA relative to UGCAUGU.

**Q.** For B4, which binding signal is on record?
**A.** The binding signal was 0.00474 KA relative to UGCAUGU.

**Q.** B5 was tested. Which binding signal did it give?
**A.** Its binding signal is 0.0138 KA relative to UGCAUGU.

**Q.** For B6, which binding signal is on record?
**A.** The binding signal was 0.00597 KA relative to UGCAUGU.

**Q.** For B7, which binding signal is on record?
**A.** Its binding signal is 0.0065 KA relative to UGCAUGU.

**Q.** B8 was tested. Which binding signal did it give?
**A.** The binding signal was 0.0174 KA relative to UGCAUGU.

**Q.** Which binding signal does the source give for B9 here?
**A.** Its binding signal is 0.0217 KA relative to UGCAUGU.

**Q.** How did the binding signal turn out when B10 was run?
**A.** The binding signal was 0.00275 KA relative to UGCAUGU.

**Q.** With B11 as the binder, how does the binding signal read?
**A.** Its binding signal is 0.0193 KA relative to UGCAUGU.

**Q.** With B12 as the binder, how does the binding signal read?
**A.** Its binding signal is 0.0116 KA relative to UGCAUGU.

**Q.** With B13 as the binder, how does the binding signal read?
**A.** The binding signal was 0.00961 KA relative to UGCAUGU.

**Q.** For B14, which binding signal is on record?
**A.** The binding signal was 0.0141 KA relative to UGCAUGU.

**Q.** For B15, which binding signal is on record?
**A.** Its binding signal is 0.00776 KA relative to UGCAUGU.

**Q.** How did the binding signal turn out when B16 was run?
**A.** Its binding signal is 0.0107 KA relative to UGCAUGU.

**Q.** With B17 as the binder, how does the binding signal read?
**A.** The binding signal was 0.00913 KA relative to UGCAUGU.

**Q.** For B18, which binding signal is on record?
**A.** The binding signal was 0.0088 KA relative to UGCAUGU.

**Q.** With B19 as the binder, how does the binding signal read?
**A.** The binding signal was 0.00678 KA relative to UGCAUGU.

**Q.** Which binding signal does the source give for B20 here?
**A.** Its binding signal is 0.0407 KA relative to UGCAUGU.

**Q.** B21 was tested. Which binding signal did it give?
**A.** Its binding signal is 0.0062 KA relative to UGCAUGU.

**Q.** B22 was tested. Which binding signal did it give?
**A.** The binding signal was 0.00229 KA relative to UGCAUGU.

**Q.** B23 was tested. Which binding signal did it give?
**A.** Its binding signal is 0.00952 KA relative to UGCAUGU.

**Q.** For B24, which binding signal is on record?
**A.** The binding signal was 0.019 KA relative to UGCAUGU.

**Q.** For B25, which binding signal is on record?
**A.** The binding signal was 0.00109 KA relative to UGCAUGU.

**Q.** For B26, which binding signal is on record?
**A.** The binding signal was 0.00448 KA relative to UGCAUGU.

**Q.** How did the binding signal turn out when B27 was run?
**A.** Its binding signal is 0.0147 KA relative to UGCAUGU.

**Q.** B28 was tested. Which binding signal did it give?
**A.** The binding signal was 0.00587 KA relative to UGCAUGU.

**Q.** Which binding signal does the source give for B29 here?
**A.** The binding signal was 0.0125 KA relative to UGCAUGU.

**Q.** B30 was tested. Which binding signal did it give?
**A.** Its binding signal is 0.009 KA relative to UGCAUGU.

**Q.** How did the binding signal turn out when B31 was run?
**A.** The binding signal was 0.00593 KA relative to UGCAUGU.
